# Test results published in PubChem BioAssay AID1347073 (National Center for Advancing Translational Sciences (NCATS), 2019).
# Screen size: about 45,000 compounds; about 200 (0.44%) were called active. Inconclusive results (about 7%) are left out. Calls follow the shape of the dose curve; as a rule, active = well fitted activation curve with a large enough effect; inconclusive = small, poorly fitted or top-dose-only effect; inactive = no such curve, though single readings can be large or run the other way. The list shows a part of the results.
# Experiment: qHTS of TDP-43 Inhibitors: NCGC Sytravon Library Screen; also: 0% is about no effect; nearly all actives have a fitted effect of over 55% in size
# Details: yeast TDP-43 toxicity rescue, BacTiter-Glo growth, 24 h; series mostly up to 46.1 µM; growth rescue (activation): at the top concentration
# Method in brief: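 TDP-43-expressing yeast, pregrown in raffinose, seeded at OD600 0.02 in galactose medium with compound for 24 hr at 30 deg C. Growth read by BacTiter-Glo luminescence, so rescue of toxicity appears as activation.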
row,Compound,growth rescue (activation)
1,O=C(NC1CCN(Cc2ccccc2)CC1)C1CCN(S(=O)(=O)c2ccccc2)CC1,inactive: -8.19%
2,CC1(C(=O)NS(=O)(=O)c2cccc(Cl)c2)CCN1C(=O)CC1CCCC1 (stereo not given),inactive: -1.63%
3,COC(=O)CNC(=O)CNC(=O)c1nn(-c2ccc(OC)c(Cl)c2)c(=O)c2ccccc12,inactive: 6.12%
4,COc1ccc(NC(=O)CCOc2cc(C)ccc2C)cc1S(=O)(=O)N1CCCCC1,inactive: 11.5%
5,COc1cccc(OC)c1OCCCN1CCOCC1,inactive: -6.91%
6,O=C(NCc1ccc(Cl)cc1)c1ccc(NC(=O)C2CCCO2)cc1 (stereo not given),inactive: 11%
7,COc1cccc(C(=O)N2CCC(n3nccc3NC(=O)C(OC)c3ccccc3)CC2)c1 (stereo not given),inactive: 7.52%
8,CCOc1ccc(N2CC(C(=O)Nc3nnc(SCCOC)s3)CC2=O)cc1 (stereo not given),inactive: 1.39%
9,COc1ccccc1C(=O)Nc1sc(C(=O)N2CCCC2)c(C)c1C#N,inactive: 1.64%
10,CSc1ccc(-c2nc(O)c3cnccn23)cc1,inactive: -8.73%
11,C=C(C)CNC(=S)N/N=C/c1c(F)cccc1F,inactive: 21.1%
12,Cc1ccc(OCC(=O)c2cc(C)n(Cc3ccco3)c2C)c([N+](=O)[O-])n1,inactive: 10.8%
13,COc1ccccc1OCCNC(=O)c1cc(F)c(F)cc1Cl,inactive: 16.4%
14,COc1ccc(N2CCN(c3ncnc4scc(-c5ccc(C)cc5)c34)CC2)cc1,inactive: -0.631%
15,Cc1nc2c(cc1C(=O)N/N=C/c1ccc(O)c(O)c1)c(=O)n(C)c(=O)n2C,inactive: -12.8%
16,COc1ccc(-c2cc(=O)oc3cc(O)ccc23)cc1,inactive: 4.58%
17,O=C(NCCCc1ccncc1)C1CCC(=O)N(Cc2cccc(C(F)(F)F)c2)C1 (stereo not given),inactive: -1.07%
18,O=C(NCC(=O)N1CCN(c2ccccc2O)CC1)c1ccccc1,inactive: -6.51%
19,COC(=O)c1ccc(C(=O)OC)c(NC(=O)Oc2ccccc2)c1,inactive: 8.9%
20,COCCNC(=O)C1(C)CCCN(C(=O)c2ccc(C)c(F)c2)C1 (stereo not given),inactive: 1.2%
21,c1cc2c(cc1C1=NNC(=NC3CC3)SC1)OCCO2,inactive: -24%
22,Cc1cc(NC(=O)c2ccc(F)cc2)n(CCOC(=O)c2ccc(F)cc2)n1,inactive: 13%
23,CC(=O)Nc1ccc(SCC(=O)N(C)C2CCS(=O)(=O)C2)cc1 (stereo not given),inactive: 4.19%
24,O=C(NC(=S)Nc1cccc(S(=O)(=O)NC2=NCCC2)c1)c1cc(-c2ccco2)nc2ccccc12,inactive: 1.72%
25,O=C(NCc1ccccc1)C(c1ccccc1F)N(C(=O)c1csnn1)C1CCCC1 (stereo not given),inactive: 2.85%
26,COc1ccc(-c2nnc(SCC(=O)Nc3ccc(C(=O)O)cc3)n2-c2ccc(Cl)cc2)cc1,inactive: -2.44%
27,Cc1cc(C(=O)NNC(=O)c2ccc(S(=O)(=O)N(C)C)cc2)c(C)o1,inactive: 13.3%

row,Compound,growth rescue (activation)
1,COc1ccc(C)cc1Nc1nc(-c2c[nH]c3ccccc23)cs1,inactive: -5.35%
2,Cc1sc2nc(COC(=O)CNC(=O)c3ccc(C(C)(C)C)cc3)[nH]c(=O)c2c1C,inactive: 14.4%
3,COc1cccc(C2C(C(=O)c3ccc(C)o3)=C(O)C(=O)N2CCN2CCOCC2)c1OC (stereo not given),inactive: 6.73%
4,CCNC(=O)C1(C)CCCN(C(=O)c2ccc3c(c2)C(C)(C)CCC3(C)C)C1 (stereo not given),inactive: 13.4%
5,CCOc1ccc(N2CC(C(=O)Nc3cc(OCC)c(N4CCOCC4)cc3OCC)CC2=O)cc1 (stereo not given),inactive: 21.1%
6,CO/N=C/C(C(C)=O)C(=O)Nc1ccc(Cl)cc1Cl (stereo not given),inactive: 6.92%
7,O=C(O)CCCC(=O)N1N=C(c2ccccc2)CC1c1ccc2nccnc2c1 (stereo not given),inactive: 2.79%
8,O=C(CN1C(=O)NC2(CCOc3ccccc32)C1=O)c1cccs1 (stereo not given),inactive: 9.41%
9,CCCn1nc(NC(=O)CC(C)C)c2cc3cccc(C)c3nc21,inactive: 6.34%
10,COc1ccc(CCN2CC(C(=O)NCc3ccc(F)cc3)CC2=O)cc1OC (stereo not given),inactive: 1.73%
11,COc1ccc(CCNC(=O)C2CCCN(c3nc4ccccc4s3)C2)cc1OC (stereo not given),inactive: 9.7%
12,COc1ccc(C(=O)NC(C)c2ccc(-n3ccnc3)cc2)cc1[N+](=O)[O-] (stereo not given),inactive: 8.95%
13,O=C(/C=C/c1ccc2c(c1)OCO2)c1ccccn1,inactive: 20.7%
14,COc1ccc(Cl)cc1NC(=O)NCCN1CCCCC1,inactive: 16.2%
15,CC(C)(C)SCCNC(=O)c1ccc(Cl)c([N+](=O)[O-])c1,inactive: -52.7%
16,CCc1nc2ccc(C(=O)N3CCN(S(=O)(=O)CC)CC3)cn2c1N(CCC(C)C)CCN(C)C,inactive: -2.97%
17,Cc1cc(C)c(S(=O)(=O)n2c([N+](=O)[O-])cnc2C)c(C)c1,inactive: 16.7%
18,COc1ccc(OC)c(N(CC(=O)Nc2cccc(C(F)(F)F)c2)S(C)(=O)=O)c1,inactive: -3.81%
19,COc1ccc(CCNC(=O)c2cc(-c3ccc(Cl)c(Cl)c3)oc2C)cc1,inactive: 8.71%
20,Cc1cccc(C(=O)NNC(=O)CCC(=O)Nc2cccc(Cl)c2C)c1,inactive: 14.4%
21,COc1cccc(C(NC(C)=O)c2nc(-c3cccc(C(=O)O)c3)cs2)c1 (stereo not given),inactive: -0.622%
22,COc1ccccc1CNc1nc(C)c(C(=O)N(C)C)s1,inactive: 14.8%
23,CCSc1nnc(NC(=O)NC(C)(C(F)(F)F)C(F)(F)F)s1,inactive: 9.45%
24,Cc1nc2c(-c3ccccc3)c[nH]n2c(=O)c1Cc1ccccc1,inactive: 1.5%
25,CC(C)C(Nc1ccc(C(F)(F)F)cc1[N+](=O)[O-])C(=O)O (stereo not given),inactive: -8.62%
26,CC(C)CCNC(=O)CN1N=C(c2ccc(Cl)cc2)CCC1=O,inactive: 13.5%
27,COCOc1ccc(-c2ncc(OC)nc2NC(=O)c2cc(C)oc2C)cc1,inactive: -7.48%

row,Compound,growth rescue (activation)
1,CC1CCN(c2ccccc2NC(=O)c2ccc(Br)o2)CC1,inactive: 11.9%
2,O=C(NC1CCCC1)C1CC(O)CN1C(=O)Nc1ccccc1 (stereo not given),inactive: 1.77%
3,O=C(C[n+]1cc(-c2ccc(F)cc2)n2c1CCC2)N1c2ccccc2Sc2ccccc21,inactive: -11.3%
4,CC(C)(C)NS(=O)(=O)c1cc(C(=O)Nc2sccc2C#N)ccc1Cl,inactive: 12.2%
5,COc1ccc2[nH]cc(C(=O)NCCc3ccccc3)c(=O)c2c1,inactive: 5.15%
6,Cc1cc(C)n(-c2ccc(S(N)(=O)=O)cc2[N+](=O)[O-])n1,inactive: 8.25%
7,COc1ccc2c(C)nc(Nc3nc(-c4ccccc4)cc(=O)[nH]3)nc2c1,inactive: 11.4%
8,CN(C)S(=O)(=O)c1cccc(NC(=O)c2cc3c(=O)n4ccccc4nc3s2)c1,inactive: -10.8%
9,CC1CCN(C(=O)c2ccc(NS(=O)(=O)c3cccs3)cc2)CC1,inactive: 14.7%
10,CCOC(=O)c1c(CN2CCC(C)CC2)n(C)c2cc(Br)c(OC)cc12,inactive: 11.6%
11,O=[N+]([O-])c1ccc(Sc2cccc3cccnc23)c2cccnc12,inactive: 10.7%
12,CCN1CCN(C(=S)NCC(C)C)CC1,inactive: -9.14%
13,CC(=O)Nc1cccc(Oc2nc(NCCN(C)C)nc3ccsc23)c1,inactive: 2.2%
14,COc1cc(CNc2ncnc3c2ncn3[C@H]2CN(Cc3ccccc3)C[C@@H](COC(C)=O)O2)cc(OC)c1OC,inactive: 1.44%
15,O=C(COC(=O)CNC(=O)C1CCCCC1)Nc1ccc(Br)cc1Br,inactive: 22.7%
16,Cc1ccc(C)c(Nc2c(F)c(F)c(F)c(F)c2C(=O)O)c1,inactive: 16.8%
17,Cc1cccc(C)c1NC(=S)N(CCc1ccncc1)C(C)C,inactive: 4.75%
18,O=C(c1cc(Br)ccc1Cl)N1CCCC1,inactive: -2.74%
19,O=C(CN(Cc1ccco1)C(=O)CNS(=O)(=O)c1ccc(Cl)cc1)NCc1ccco1,inactive: 1.53%
20,N#CCCn1cc(/C=N/NC(N)=S)c(-c2ccccc2)n1,inactive: 8.77%
21,CCOC(=O)c1cc2c(C(F)(F)F)cc(-c3cccnc3)nc2o1,inactive: 4.53%
22,c1ccc2c(Nc3ccc(N4CCOCC4)cc3)nc(N3CCOCC3)nc2c1,inactive: -23.9%
23,Cc1cc(C)nc(NC(C)(C)C(=O)O)n1,inactive: -3.75%
24,O=C(CN1C(=O)NC2(CCCC2)C1=O)NC(c1ccccc1)c1ccccc1,inactive: -11.9%
25,COC(=O)C1=C(C)N(Cc2ccccc2)C(=O)/C1=C\c1ccco1,inactive: -29.9%
26,O=C(NC1CCN(C(=O)Nc2ccc(F)cc2)CC1)c1ccc(F)cc1,inactive: -2.01%
27,Cc1cc(=O)[nH]c(SCC(=O)Nc2ccc3c(c2)OCCO3)n1,inactive: 5.02%

row,Compound,growth rescue (activation)
1,COc1ccc(/C=C2/Sc3ccc(C(=O)NCCCN4CCOCC4)cc3NC2=O)cc1OC,inactive: 5.13%
2,CC1=Nc2nc(N3CCCCC3)c(C#N)c3c4c(nc(c23)N1)N(c1ccc(C(C)C)cc1)C(=O)C4,inactive: 9.46%
3,CCOC(=O)c1ccc(NC(=O)c2ccc(NC(=O)C3CCCO3)cc2)cc1 (stereo not given),inactive: 17.7%
4,COc1ccccc1NS(=O)(=O)c1ccc(O)c(C(=O)OCc2cccc([N+](=O)[O-])c2)c1,inactive: 15.6%
5,CCC(C)C(NC(=O)C1CCC(=O)N1C(=O)OCc1ccccc1)C(=O)NC(Cc1ccccc1)C(N)=O (stereo not given),inactive: -15%
6,CCOC(=O)CCNC(=O)Nc1cc2nc(C)n(Cc3cccc(Cl)c3)c2nc1C,inactive: -6.29%
7,COc1cccc(NC(=O)CC2NCCNC2=O)c1 (stereo not given),inactive: -4.45%
8,CC(O)C(NS(=O)(=O)c1ccc(Cl)cc1)C(=O)OCc1cc([N+](=O)[O-])cc2c1OCOC2 (stereo not given),inactive: -19.1%
9,COc1ccccc1CNC(=O)Cc1c[nH]c2ccccc12,inactive: 2.49%
10,NC(=O)c1nsc(C(=O)N(c2ccc(F)cc2)C(C(=O)NCC2CCCO2)c2ccc3ncccc3c2)c1N (stereo not given),inactive: 7.66%
11,O=C(Cc1cccc2ccccc12)NN1C(=O)/C(=C\c2cccnc2)SC1=S,inactive: 20.5%
12,COc1ccccc1NC(=O)Cc1nnc(SCC(=O)NC2CCCC2)n1C,inactive: -1.17%
13,COc1ccccc1CCC(=O)NNC(=O)c1ccccc1,inactive: 2.78%
14,Nn1c(SCC(=O)NC2CCS(=O)(=O)C2)nnc1-c1ccco1 (stereo not given),inactive: 8.16%
15,Nc1nc2c(nc(N3CCCCC3)n2[C@@H]2O[C@H](CO)[C@@H](O)[C@H]2O)c(=O)[nH]1,inactive: 0.222%
16,O=C(COC(=O)/C=C/c1ccccc1[N+](=O)[O-])NC(=O)NC1CCCC1,inactive: 37.8%
17,Cc1nc(NCc2ccccn2)c2c3c(sc2n1)CCCC3,inactive: 18%
18,CCn1nc(NC(=O)C(C)C)c2cc3ccc(C)cc3nc21,inactive: 9.62%
19,O=C(Nc1ccc(S(=O)(=O)NCc2ccco2)cc1)c1cccc(F)c1,inactive: 7%
20,S=C(NC1CCCC1)NN1CCOCC1,inactive: -3.02%
21,O=C(Nc1ccc(F)c(Cl)c1)c1cccnc1,inactive: 5.26%
22,Cc1ccc(NC(=O)CN(C)C(=O)CCOc2cccc(C)c2)cc1,inactive: 9.5%
23,COc1ccc2cc(C3CC(c4ccco4)=NN3S(C)(=O)=O)c(Cl)nc2c1 (stereo not given),inactive: 5.84%
24,Cc1ccc(NC(=O)c2cc(-c3ccccc3O)n[nH]2)cc1Cl,inactive: 14.6%
